Test results taken from PubChem BioAssay AID588453 (National Center for Advancing Translational Sciences (NCATS), 2011).
Screen size: about 390,000 compounds; about 4,000 (1%) were called active. The shares of active, inactive and inconclusive entries below differ from those in the screen. Calls follow the shape of the dose curve; as a rule, active = well fitted inhibition curve with a large enough effect; inconclusive = small, poorly fitted or top-dose-only effect; inactive = no such curve, though single readings can be large or run the other way. Potencies of inconclusive entries are doubtful fits and often do not repeat.

molecular target: Thioredoxin reductase 1, cytoplasmic (Rattus norvegicus) (UniProt O89049); experiment: qHTS Assay for Inhibitors of Mammalian Selenoprotein Thioredoxin Reductase 1 (TrxR1): qHTS; settings: recombinant rTrxR1, NADPH fluorescence consumption, selenite substrate; series mostly up to 114 µM; also: nearly all actives have a fitted effect of over 65% in size
In short: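 Rat TrxR1 (90 nM in the dispensed reagent) was pre-reduced with 400 uM NADPH for 5 min at room temperature, then incubated with compound for 15 min. After 400 uM selenite was added, NADPH fluorescence (Ex 340/Em 450 nm) was followed for 8 min.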
Potency is read from the fitted curve at half-maximal effect; tags tell the direction and shape of the fitted curve.

Sequence of UniProt O89049 (O89049 whole entry, looked up): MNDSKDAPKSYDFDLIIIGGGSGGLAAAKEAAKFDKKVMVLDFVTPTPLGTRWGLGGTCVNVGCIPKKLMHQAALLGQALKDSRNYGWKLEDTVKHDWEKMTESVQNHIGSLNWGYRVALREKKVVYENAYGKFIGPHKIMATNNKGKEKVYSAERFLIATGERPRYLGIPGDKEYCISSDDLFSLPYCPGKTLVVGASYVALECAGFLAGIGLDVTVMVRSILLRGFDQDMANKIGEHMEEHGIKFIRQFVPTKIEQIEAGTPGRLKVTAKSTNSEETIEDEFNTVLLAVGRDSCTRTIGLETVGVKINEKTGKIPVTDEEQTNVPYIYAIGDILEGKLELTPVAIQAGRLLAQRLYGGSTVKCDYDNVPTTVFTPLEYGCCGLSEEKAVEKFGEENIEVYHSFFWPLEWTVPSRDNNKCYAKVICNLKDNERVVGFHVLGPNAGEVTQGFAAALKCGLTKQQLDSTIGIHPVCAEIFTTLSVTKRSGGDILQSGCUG

SMILES | Potency
Cc1ccc(S(=O)(=O)N(C(=O)c2ccncc2)c2ccc(OC(=O)c3ccncc3)cc2)cc1 | inconclusive: 12.6 µM [inhibitor, full curve]
COC(=O)c1c(C)cc(C)n2c1nc1ccccc12 | inactive
CCOc1ccc(C(C)=O)cc1COc1cccnc1[N+](=O)[O-] | inconclusive: 70.8 µM [inhibitor, partial curve, poor fit]
Cc1ccc(C(c2sc3nc(-c4ccco4)nn3c2O)N2CCOCC2)cc1 (centres undefined) | inactive
O=C(CSc1n[nH]c(-c2ccc(Br)cc2)n1)N1CCOCC1 | inconclusive: 39.8 µM [inhibitor, partial curve, poor fit]
C/C(=C\C(=O)c1ccccc1)Nc1ccc2c(c1)OCO2 | inconclusive: 56.2 µM [inhibitor, partial curve]
Nc1cccc[n+]1C(c1ccnc2ccccc12)[n+]1ccccc1N | inactive
COc1ccc(C2CC(c3ccccc3C(F)(F)F)=NN2c2ccc(S(N)(=O)=O)cc2)cc1 (centres undefined) | inconclusive: 70.8 µM [inhibitor, single point]
COc1ccc(C(C)=O)cc1CSc1nnnn1-c1ccc(O)cc1 | inconclusive: 50.1 µM [inhibitor, partial curve, poor fit]
Cc1ccc(S(=O)(=O)N2CN(Cc3ccco3)c3nc4ccccc4nc32)cc1 | inconclusive: 35.5 µM [inhibitor, full curve]
COc1ccc(-n2c(Cn3nc(C(F)(F)F)cc3C)n[nH]c2=S)cc1 | inconclusive: 17.8 µM [inhibitor, partial curve, poor fit]
CC(=O)C1=C(C)NC(SCC(=O)c2ccc(Cl)cc2)=C(C#N)C1c1ccco1 (centres undefined) | inconclusive: 15.8 µM [inhibitor, partial curve, poor fit]
COc1cccc(/C=C/C(=O)c2ccc(NS(=O)(=O)c3ccc(C)cc3)cc2)c1 | inconclusive: 31.6 µM [inhibitor, full curve, poor fit]
COCCNC(=O)CCn1c(=O)c2cc(OC)c(OC)cc2n(CC(=O)Nc2ccc(F)c(Cl)c2)c1=O | inactive
COc1ccc(-c2sc3cc4c(cc3c2C#CCO)OCO4)cc1 | inconclusive: 79.4 µM [inhibitor, single point]
Cc1ccc(S(=O)(=O)N2[C@@H](c3ccc(Cl)cc3)C(C(=O)O)=CC[C@H]2c2ccc(C(C)C)cc2)cc1 | inactive
CCN1C(=O)c2cccc3c(S(=O)(=O)NC(Cc4ccccc4)C(=O)O)ccc1c23 (centres undefined) | inconclusive: 89.1 µM [inhibitor, single point]
CN(C)CCCN1c2ccccc2Sc2ccc(C(F)(F)F)cc21 | inconclusive: 37.7 µM [inhibitor, single point]
Cc1ccc2c(c1)N(C)/C(=C/c1cccc[n+]1CCO)S2 | inconclusive: 39.8 µM [inhibitor, single point]
COc1ccc(-c2nc3scc(CCNS(=O)(=O)c4ccccc4F)n3n2)cc1 | inactive
Cc1cccc(C)c1NC(=S)NC(=O)c1ccccc1F | inconclusive: 39.8 µM [inhibitor, partial curve, poor fit]
Cc1cccc(C(=O)N(Cc2ccc(C)o2)C2CCS(=O)(=O)C2)c1 (centres undefined) | inconclusive: 39.8 µM [inhibitor, partial curve]
C#CCOCCOCCOCCNc1nc(N2CCN(C(=O)Cn3cc(CCCN=C(N)N)nn3)CC2)nc(N2CCN(C(=O)[C@H]([C@@H](C)O)n3cc(CCCCN)nn3)CC2)n1 | active: 70.8 µM

SMILES | Potency
COc1ccc(Cl)cc1NS(=O)(=O)c1ccc(S(=O)(=O)N2CCCC2)cc1 | inconclusive: 39.8 µM [inhibitor, single point]
CCOc1ccc(N(CC(=O)Nc2cc(C)ccc2C)S(=O)(=O)c2c(C)[nH]c(=O)[nH]c2=O)cc1 | inactive
CC1C(=O)C(C)C(c2cc(Cl)ccc2O)NC1c1cc(Cl)ccc1O (centres undefined) | inactive
O=c1[nH]c(=S)[nH]c2n[nH]nc12 | inconclusive: 10 µM [inhibitor, partial curve, poor fit]
CCOC(=O)C1=C(C)NC(C)=C(C(=O)OCC)C1/C=C/c1ccccc1OC | inconclusive: 70.8 µM [inhibitor, single point]
CN(C)S(=O)(=O)c1ccc(C(=O)Nc2ccccc2SCCC#N)cc1 | inactive
COc1ccc(-c2cn3nc4c(nc3n2)CCCC4)cc1 | inconclusive: 17.8 µM [inhibitor, partial curve, poor fit]
COc1ccc(NC(=O)c2ccccn2)cc1 | inactive
CS/C(N)=N/N=C/c1ccc2c(c1)OCO2 | inactive
CC(=O)Nc1cccc(-c2nc3ccc(NC(C)=O)cc3[nH]2)c1 | inconclusive: 100 µM [inhibitor, single point]
COC(=O)C(=Nc1ccccc1)/C(C(=O)C(=O)N(C)c1ccccc1)=C(\O)c1ccc(Cl)cc1 | inconclusive: 14.1 µM [inhibitor, full curve]
O=C(NCc1cccnc1)[C@@H]1CC=C[C@@H]2CCN(C3CCCCC3)C(=O)[C@@H]21 | inactive
CC1CCN(C(=O)COC(=O)/C=C/c2ccc(Br)o2)CC1 | active: 25.1 µM
O=C1CCN(Cc2ccccc2)S(=O)(=O)c2ccccc21 | inconclusive: 56.2 µM [inhibitor, partial curve]
CCOC(=O)c1c(NC(=O)c2ccc(S(=O)(=O)N3CCOCC3)cc2)sc2c1CCN(C(C)C)C2 | inconclusive: 56.2 µM [inhibitor, partial curve]
O=C(N/N=C1/CC2CCC1C2)c1cc2ccccc2cc1O (centres undefined) | inactive
Cc1c([N+](=O)[O-])cc(C(=O)Oc2ccc(Br)cc2C(=S)N2CCCCC2)cc1[N+](=O)[O-] | inconclusive: 12.6 µM [inhibitor, full curve, poor fit]
Cc1ccnc(NCc2c(O)ccc3ccccc23)c1 | inconclusive: 12.6 µM [inhibitor, full curve]
COc1ccccc1-c1nnc(NC(=O)C(C)Sc2nncn2C)s1 (centres undefined) | inconclusive: 89.1 µM [inhibitor, single point]
CCOC(=O)N1CCN(c2nc3c(C)cccn3c(=O)c2C=O)CC1 | inconclusive: 79.4 µM [inhibitor, partial curve]
N#CCCN(C(=O)CCl)c1cccc(Cl)c1 | active: 8.91 µM
O=C(Nc1ccccc1)c1c(F)cccc1F | inactive
CCOc1ccc2c(c1)N(C(=O)CN1C(=O)CCC1=O)C(C)(C)C=C2C | inactive

SMILES | Potency
CNC(=O)c1cc2c(=O)n3cccc(C)c3nc2n(C(C)C)c1=N | inconclusive: 70.8 µM [inhibitor, single point]
COc1cccc(-c2ccc(NC(=O)C3CCCN(Cc4cnc(C)n4C)C3)cc2)c1 (centres undefined) | inactive
Cc1ccccc1-c1nc(CS(=O)CC(=O)NC2CCCCC2)c(C)o1 (centres undefined) | inconclusive: 56.2 µM [inhibitor, partial curve, poor fit]
CC(C(=O)O)N1C(=O)/C(=C/c2cccn2C)SC1=S (centres undefined) | inconclusive: 50.1 µM [inhibitor, partial curve]
Cc1cc(C)c2[nH]c(=O)c(C(c3nnnn3CC3CCCO3)N3CCCC(C)C3)cc2c1 (centres undefined) | inconclusive: 56.2 µM [inhibitor, single point]
COc1cc(NC(=O)CCC(=O)c2cccs2)cc(OC)c1 | inconclusive: 79.4 µM [inhibitor, single point]
CC(C)(C)NC(=O)CN1CCN(C(=O)CCl)CC1 | inconclusive: 25.1 µM [inhibitor, partial curve, poor fit]
COc1cc(NC(=O)CCNC(=O)Cn2cnc3sc4c(c3c2=O)CCCC4)cc(OC)c1OC | inactive
CCCCCCc1ccc(C(=O)CCN(C)C)cc1 | active: 10 µM
CCC1=NN2C(=N)/C(=C/c3ccc(OS(=O)(=O)c4ccccc4)c(OC)c3)C(=O)N=C2S1 | inactive
COc1ccc(NC(=O)C(NS(=O)(=O)c2cccs2)C(C)C)cc1Cl (centres undefined) | inconclusive: 39.8 µM [inhibitor, single point]
CC(=O)Oc1ccc(C(=O)[C@H]2[C@H]3C(=O)N(c4ccccc4)C(=O)[C@H]3[C@@H]3C=CC=NN32)cc1 | active: 11.2 µM
CN(C(=O)CSc1cn(CC(=O)N2CCOCC2)c2ccccc12)c1ccccc1 | inactive
O=c1[nH]c2cc3c(cc2cc1CN(Cc1cccs1)Cc1nnnn1Cc1ccco1)OCCO3 | active: 15.8 µM
O=C(NCCCN1CCOCC1)c1cc2c(=O)[nH]c3ccccc3c2s1 | inconclusive: 22.4 µM [inhibitor, partial curve]
Cc1cc(Br)ccc1NC(=S)Nc1cccc([N+](=O)[O-])c1 | inconclusive: 22.4 µM [inhibitor, full curve]
Cc1nn2c(c1-c1ccc(Cl)cc1)N=C(c1ccco1)CC2c1ccccc1 (centres undefined) | inconclusive: 17.8 µM [inhibitor, single point]
O=C1NC(c2cccc(Br)c2)=N/C1=C\c1ccco1 | inconclusive: 79.4 µM [inhibitor, partial curve, poor fit]
O=C(O)C1CCCN1S(=O)(=O)c1ccccc1 (centres undefined) | inactive
CCCCNc1ccc(C(F)(F)F)cc1S(=O)(=O)NCCc1ccc(F)cc1 | inactive
Cc1ccc2c(c1)N=C(c1ccccc1)CC(C(Cl)Cl)=N2 | inconclusive: 39.8 µM [inhibitor, single point]
Cc1ccc(C(=O)OCC(=O)c2ccc(CC(=O)N3CCOCC3)s2)c(C)c1 | inconclusive: 79.4 µM [inhibitor, single point]
Fc1ccc(CN2CCCN(Cc3nc(-c4ccc5c(c4)OCO5)no3)CC2)cc1 | inconclusive: 56.2 µM [inhibitor, partial curve, poor fit]
